Assay results: the supplement of paper PMC10681739
In all, about 2,700 sequences were measured (“arbitrary fluorescence units”: median about 4,100, highest 2% from about 54,000 on). The list shows a part of the results.

target: T1, ETS1 (UniProt P14921); experiment: ETS1 binding intensity (PBM fluorescence) (arbitrary fluorescence units); higher = stronger binding; details: ETS1 concentration 10 nM
T1 sequence: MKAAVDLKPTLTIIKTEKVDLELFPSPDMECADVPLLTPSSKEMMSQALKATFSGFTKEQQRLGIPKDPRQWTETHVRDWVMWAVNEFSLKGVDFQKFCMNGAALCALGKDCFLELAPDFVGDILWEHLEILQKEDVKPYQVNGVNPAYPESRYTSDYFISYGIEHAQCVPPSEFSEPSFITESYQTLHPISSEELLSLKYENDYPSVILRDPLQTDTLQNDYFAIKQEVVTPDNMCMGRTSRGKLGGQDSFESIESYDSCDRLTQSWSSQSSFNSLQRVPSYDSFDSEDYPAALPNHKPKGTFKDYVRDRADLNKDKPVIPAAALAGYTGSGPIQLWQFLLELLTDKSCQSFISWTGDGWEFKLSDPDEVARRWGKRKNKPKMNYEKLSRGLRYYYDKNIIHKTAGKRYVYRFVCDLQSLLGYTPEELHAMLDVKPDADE
Procedure: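 gcPBM on wild-type 36-bp genomic probes with two neighbouring ETS1 sites (4-24 bp apart). Recombinant human ETS1 (10 nM) was detected with anti-ETS1 antibody fluorescence. Values are medians over 3 replicate spots. The probes sit in constant array flanks that are not printed.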

Row | Sequence | ETS1 binding intensity
1 | GTGGCGCCCGGAACACCCCGTGCCGGAAGCTCCATG | 761
2 | CTGAAACAGGAAACAGTAAAGACAGGAAGGTTATCT | 8910
3 | TGCCCTGCCTGCTTCCTCCCTTCCTTTCAACCCCAA | 2350
4 | TGCGGCACAGGATGAATGAGCAATTCCGGGCGCGCG | 354
5 | CCCCGGATCTAGGCGGTCGTCACCGACAGGAAGCGA | 671
6 | AAGTGAGTATTTCCTGCCTTGATTTCCTGACATTTC | 28700
7 | GGTACAAACATTTCCTCTGCAGGAAGGAGCAGATGC | 2740
8 | GGTCCAGGGGCATCCTGTGAAAGGAAGGGGCAGCAG | 3710
9 | CCCACAGGATGCAGTGCCTGATGCCACTTCCGAGCA | 3090
10 | TCCGCGTCCCCACATCCTCCGGATGCCCAGCGGTTG | 1980
11 | AGTCTAGTTGCCAGGAAACAGGATGTGGGAGGGACA | 3800
12 | GAGGGCAGGAAGCAACCAGCATGGGAGGAAGATGTA | 2590
13 | CAGAGTAGGAAGCAGCTGTTCTAACTTCCGTCTTCG | 1710
14 | CGCTGGGGTATTTCCGCCGGCTTCCGGCGGGGGCCG | 19600
15 | GTTATTACGTCACATCCTGGTTCCGCCTCTGCAAGG | 4960
16 | GAAGACAGGATGTGGTTGCTCATGCCATCCTGGTGG | 10300
17 | TGCCACATCCTGTCTTTTTACCTCCTTTCCTGCTTA | 51200
18 | CTGCCCGGATCAGGAGGTGAGCAGCACTTCCTGCCC | 2100
19 | AAGGTTTAAGGCCGGAAAGGGAAATGAAGGGGCCCG | 1960
20 | TTGGCTCTTGCCGGAAATCGTTCCGCCCGGTGAGGT | 6050
21 | TGGGCTTCCTGGCAGCCATTGTGAAAGGGAAATGTG | 6310
22 | ACGTGGAGGAAGTGAGTGCAGTCACAGGATGTAGTG | 1730
23 | TCCTGAGTTTCCTGTATTTCAGGCAGGATGGCTGAT | 14500
24 | GTCTTGGGAAACGCAACATGTGGGCAGGAAACGCCT | 279
25 | CTTTCTTCCTGCGCAGCCAGGTTTCTAAGGAAATGA | 5250

Row | Sequence | ETS1 binding intensity
26 | GGCGGTACCTGCGGAAGACGAGGATGTCCTGGTAGC | 214
27 | GCAGCAAGGCCACTTCCTCTTCCTGTGTAATAATAA | 16800
28 | GGTGGCTGAAATTTCCTTTACTTCCTTGTACAGTTG | 1580
29 | TCTGGCCTTCCGTGCCTGTTACCACTTCCCCTCCAG | 637
30 | TCGCCGGCCTCCTTCCTGTGGGAAGTGCGGCTCCTT | 5360
31 | CCTGCTGGTTTCCGGGGCCGGCCAGGAAGTGGAGGG | 13400
32 | TCGGCCCTGCATCCTGCCTGGGCATCCTGCGCCCGG | 8450
33 | CGACGAGCAACAGGAAATACGGATGCATTTAATCCC | 5480
34 | GCACATTGCAGCGGAAACTACGGAAACATAGGAAAA | 2460
35 | CGCAACCACAGCTTCCGCCACATCCTGCCGGGGTTC | 13200
36 | ACGTCGGAAATCTGCTGGGCAGGGAGATTTCCTCAA | 212
37 | CTTAGTTTCCTCTGGCGATGCTAAAGAGGAAGTTAC | 2440
38 | AAGAAGGAAATAATGTCTTTGACTACAGGATATGGG | 289
39 | ACCCGCGCACTTCCGGAGAACGGGAAGGGGGCGTGG | 34800
40 | GGGTGCTTCCGGGGCAGCGCGCGCCACTTCCGACCT | 33500
41 | TTTATTTCCTGTTATTACAAAGGCTTCAGGAAATCT | 32200
42 | CGGCGGAAGGAGCGGGCGGCGTGAGCGCTTCCGCCG | 811
43 | ATAAGAGCAAGACAGGAAGGAAGCCTGCTGTGTCGT | 708
44 | AGATGATTCACATCCTGGGCAGGATGGAGCTGGACA | 5730
45 | ACGCCAGAATCTTCCGGCGTCTTTCCGGTGGTGGTC | 10400
46 | CAGCTGCTCAGCTTCCTCCAAGGAAGTTGCCAATGC | 890
47 | TGGGGAAGCAGGATGAGCTCATTTCCTTTGTACCAA | 3180
48 | GAAACATTATTTCCTGTGATGTTTCCTGTGTGGGCC | 30900
49 | CCCCTGCAGCCACTTCCTCAGGAAGTGAGCTCACCT | 5320
50 | GGTCCGGAAACGGGACAGAAGGCCCACCTTCCTCCC | 8480

Row | Sequence | ETS1 binding intensity
51 | TTAAGCAGGATGACAGCTCCAGTAACTTCCTCTTCC | 626
52 | TGCTGCAGCCAGGAAAATACATTTCCGTGTGTTTTA | 514
53 | TAGCTTGACTTCCTGTCTTTTATCATCCGCAATCTA | 49100
54 | CTCATCGTCATTTCCTGAGCCCTTCCTGGGTGAGAA | 8880
55 | AGATCGGGCAGGAAATGGGCACGGAAGCCCTGCAGT | 11100
56 | GCGCCGCCCTTCCGCGTCTGCCCTTCCTGCCCTCTC | 1370
57 | TCAGGGTTTCCTGTGCAGAGAAGTCCTTCCTGTAAC | 21500
58 | GCCCTAAACTCGCTTCCGGTTTCCTCTTCCCCAATG | 45300
59 | TCGTTTTTTTCCGCCAGTCTTGGCGGAAGCCTGAGA | 424
60 | GAGGCCCGGAAGGGGCCAGGCGCGCTTCCGTCTCCG | 2810
61 | AGAGCAAAACAGGATGCATTCAGGATGAACGTCTTT | 2240
62 | CAAGACGCAGGAAAACCGCCCCCTTCCTGCGCTCCT | 354
63 | GGATCAGGAAGTCACGACATGGCGACCATCCTGGCT | 1720
64 | AGTTGAGGAAATGAGGGAATTCTGACTTCCTCAGCC | 1430
65 | GCTCAAAGGATGTGTACTGAAGAACATCCTGTACTG | 3000
66 | ACGCTTTTCCGTTTTGCGTGCCTTTGTTTCCGCTCC | 5260
67 | GTTTTAAGCAGGAAACGGCGCAGGAAAGGAGGTGTC | 2650
68 | GGCGCGGATACCGAGGCCTGCGGGGGACATCCGCCG | 230
69 | GCGCCGCCTCAGTTCCGCGGCTTCCGGCCACAGAGT | 8030
70 | TGAAGGCTTCCGCCAAGGTGAGGGGCTTCCTCTGGG | 9460
71 | TGAGTCACACAGGATGTAAACATCCTACTTTGGCCT | 5490
72 | TGGTAACAGGCATTTCCGGTTTCCGGCCGGCTCCCT | 61800
73 | ATGGTTCCAGCCGGAAAAAGAGGAAGTTGGCGCATG | 923
74 | CCTGCCCGGAAAAGAAGGAGTTCTGGGAAATGTAGT | 484
75 | CCCCAACATATTCCGGCCTTCTGGGAAATGTAGTTC | 755

Row | Sequence | ETS1 binding intensity
76 | AGGCCGAGGTAGGATGTTTACATCCTGTGTGACTCA | 6360
77 | AGGGAGGCTTCCTGTGAGGCCCACTTCCTGTGAAGC | 17000
78 | TTCTGTTGGCTTCCTCCAATGCAGGATGTTAGCTTC | 1100
79 | AGACTTCCTCTGCCTCCCGGGGGTTGGTTTCCTCAT | 21700
80 | TTCAGACCTCGGCTTCCTACTTCCGCCGCTCTCGCG | 6920
81 | CGTGGTTTCCCGGGTGATGGCCACGCGGAAGAGGTG | 607
82 | ACCCCCGGAAGCCCCAGCAATCCTCAGGGAAGTGGG | 3870
83 | GAAGGGGCCGGATGCAGACGAACGTTCCGGCGGCTC | 3900
84 | ACAGAGAAGAAGGAAACTCACTTCCTGTCGTCGCAG | 15400
85 | AGAAGGCTCCAGGAAGCCAGCTTCCTCCCTCCGCCC | 1300
86 | TGAAAGGGGACTTCCTGACCCAGGATGTGGCATGGT | 6130
87 | AGCACATGTTCAGGATGAGTCATCCATTTCCTGCCA | 1260
88 | CGCTGCTTCCGGGTCTCGGCAAGCACTTCCGGGGTG | 30400
89 | ACTTGCCGCGGATACCCAGCCAGCGGAAGTGCGGTT | 1280
90 | CACCCCGCCTTCCTCCCCAGGTGTTTCCGGAGCTCG | 1820
91 | AGTTCATCCTGGGAGCTGCTGCGGGTTCTTCCGGGA | 1010
92 | CGCACGCCGCCACTTCCGCTTCCGTCCGTGCTGCGG | 27600
93 | GAGAGCGGAAGCGGGCGAAAACGAGACTTCCGGTGC | 27700
94 | ACAAAGTCCCACATCCTGACAGGAAACAGCCTCCAT | 9170
95 | CACCCCGGAAGCGCTCGCCGCCGACCAGGAAGAAGA | 8970
96 | AGCTGCGGCTTCCTGCCTCAGGCAGGATGTACCAAA | 18200
97 | GCTGAGTCATTTCCCATGCCACTTCCGGTGCCATGG | 39000
98 | AGAGTGTTCCGGGCCGGGCTGGGGTCCGGAACGAGT | 975
99 | CACTAGCATCCTGCTGCAGCTGACCAGGATGTACTC | 8280
100 | TAAAGGTGAGAGAGGAAGCAGGAAGTGGCATGATCC | 2630

Row | Sequence | ETS1 binding intensity
101 | CTGGAGACTTCCTCCCACAGCCCCCTTCCTGCATGC | 5820
102 | CCAAGCAGATTCCGGTGCCATGTTTCCTGTATAGCC | 7160
103 | GTAGCTCACAGGATAACCTTGTTTCCTGTGATTTTG | 1790
104 | CCCGGGCCTCTTCCGCCTCCGTTTCCTCAGCTGCCG | 7960
105 | TGAAAGTCCTTTTCCTGGCACATCCTGGCTCAAAAA | 3000
106 | GACGGTAGAAGCGGAAAAGTTTCCGAAAGGCGTCCT | 328
107 | TTGATGGCATCCACTTCCTTCCTGCCCCTCCAGGAG | 5750
108 | TCCGGGCGGAAGTGAGGCGCCCAGCGGAACGGCCTC | 10300
109 | GGTTTGACTTCCGGACTAGGTGGCTTCCTCCCTTCA | 41500
110 | CACCCGGAGCGCCGGAAAAAGGAAACCGGCTCGGCG | 751
111 | CATGTATCAGGAAAATGACTTGTTTCCTTTTCACAT | 216
112 | CAGAAGAAAAGGAAATTATCATTTCCCTGCTTGTCT | 682
113 | GGCGCTGGCAAATCCGGCCCAGGATGTAGAGCTGGC | 1900
114 | TTTCCCTGGTGTTTCCTCTCAGGAAGGGCCGTGTGA | 1180
115 | CTGGCCCAGGAGGAAGTGAGAGGAAGCAAAGTGAGA | 784
116 | AGAGGCTGCAGGAAGCTGGTGACTTCCCTGAAAATT | 1570
117 | TGACAAGAGCCGGAACCGTCACTTCCGGCGGCGCGG | 24700
118 | TCTCCGTGGCAACGGAAACTTCCCGCGCTACGGCGG | 348
119 | GGCCATCCTGCCATACCCCGCCATGCTCGGATGCCC | 4700
120 | CCAGAATAGCTTCCGAGTCAGCCGGAAGTGACCCTC | 7950
121 | AGTGGGGACTCAGGATGCACGGAAAAGATAACGTCG | 204
122 | GACAGGAAGGGCCTAATACTGCAAGCCAGGAAGTTT | 1650
123 | AAGCTGCTGGGTATCCGCGCCGGAACCGCGAGGGGG | 240
124 | TAAAAAGGAACATCCTCTCCCATCCTGGGCGTGCTG | 4260
125 | CCCTGGGGCCCGGAAACCGTTTTCCGGTCTTTCGCT | 10200
